Test results reported in the RNAGym collection of RNA variant scans (doi:10.7554/elife.90254).
Read counts are not given, so values of variants with three or more changes are uncertain.

B1: LINE1-mini (parent)
chain: GGCAGAGCUCAACACAGCGUGGCAAAGUGGCUGUGGCUAGACUGCC

Variants of: B1
Assay: self-cleavage, relative activity (ratio to wild type); higher = more cleavage; in vitro, sequencing; the parent is a self-cleaving ribozyme

| Variant | self-cleavage |
| --- | --- |
| C15U G21U G27C C31A G40C | 0.01 |
| C15U G21U U34G | 0.05 |
| C15U G22A A25U C42A | 0.16 |
| C15U G22A C23U C31G C37U | 0.05 |
| C15U G22A G29A C37U | 0.23 |
| C15U G22C C23A U28G C37A | 0.08 |
| C15U G22U A41G C45U | 0.18 |
| C15U G22U C31G C37G | 0.4 |
| C15U G22U C37A G40A | 0.01 |
| C15U G22U G27U C46U | 1.9 |
| C15U G22U G36A C42U C45U | 0.12 |
| C15U G27A A41G | 0.1 |
| C15U G27A G30C | 0.12 |
| C15U G29A A39C | 0.08 |
| C15U G29A U38G | 0.05 |
| C15U G29C A39G C46A | 0.09 |
| C15U G29C C42U | 0.56 |
| C15U G29C G35U C46G | 0.07 |
| C15U G29U C46U | 0.83 |
| C15U G30C C37U | 0.03 |
| C15U G30U C45G | 0.05 |
| C15U G33A G36C | 0.23 |
| C15U G33A G36U | 0.09 |
| C15U G33C C46U | 0.06 |

| Variant | self-cleavage |
| --- | --- |
| C15U G33C G35U | 0.02 |
| C15U G33U C42U | 0.16 |
| C15U G35A A39C A41U | 0.01 |
| C15U G35U C37G C42A | 0.05 |
| C15U G35U C42G | 0.08 |
| C15U G36U A39U G40U | 0.98 |
| C15U G40A C45G | 0.07 |
| C15U U20A G29U G35A G40U | 0.05 |
| C15U U20G G29C | 2.55 |
| C15U U28A U32C U34C G35A | 0.09 |
| C15U U28C C37G G44U | 0.03 |
| C15U U28G C42A C45A | 0.05 |
| C15U U32A G33U C37A C45G | 0.05 |
| C15U U32A U38A | 0.11 |
| C15U U32G A41U | 0 |
| C15U U32G C37U C42A | 0.05 |
| C15U U32G C46A | 0.2 |
| C15U U34C G35U | 0.16 |
| C15U U38A A41U | 0.27 |
| C15U U38A C45A | 0.4 |
| C15U U38C A39G | 0.14 |
| C15U U38C G40A | 0.21 |
| C15U U43C G44U | 0.02 |
| A16C A24C U34A | 0.01 |

| Variant | self-cleavage |
| --- | --- |
| A16C A25C U28G | 0.04 |
| A16C A25U A41G | 0.02 |
| A16C A25U U38A | 0.05 |
| A16C A26C C42U C45A | 0.06 |
| A16C A26C G29C A39G | 0.03 |
| A16C A26U U38G | 0 |
| A16C C18A A24G G40U | 0.01 |
| A16C C18G G21A G29U | 0.11 |
| A16C C18G G22A | 0.03 |
| A16C C18U C37G | 0.03 |
| A16C C18U G19U C31U | 0.01 |
| A16C C23A A25G A26C C37U | 0.01 |
| A16C C23A G29C U34G | 0.03 |
| A16C C23A G30A U43A | 0.07 |
| A16C C23G U32A C42A | 0.09 |
| A16C C23U C37U | 0.01 |
| A16C C23U G29C G44U | 0.23 |
| A16C C31A A41C | 0.04 |
| A16C C37G G40C | 0.03 |
| A16C G17A A25G G40U | 0.04 |
| A16C G17A A26G G36A | 0.01 |
| A16C G17A G40C | 0.01 |
| A16C G17C C42G C45A | 0.07 |
| A16C G17C G44C | 0.04 |

| Variant | self-cleavage |
| --- | --- |
| A16C G17C U28G G40A | 0.03 |
| A16C G17U C31U C46U | 0.04 |
| A16C G17U G30C U34A G36A G40C U43C | 0.03 |
| A16C G17U G35U | 0.05 |
| A16C G17U G36A | 0.09 |
| A16C G19C A25C | 0.89 |
| A16C G19C C31A C42A | 0.03 |
| A16C G19U G35C | 0.04 |
| A16C G21A A24G C46A | 0.01 |
| A16C G21A G35U U38A C42G G44U | 0.02 |
| A16C G21C C31U G35C A39G | 0.01 |
| A16C G21C G22A G27U | 0.07 |
| A16C G21C G27C C45U | 0.04 |
| A16C G22A C37U | 0.1 |
| A16C G22C U32G | 0.27 |
| A16C G27A U34G | 0.03 |
| A16C G29A U38C A41G | 0.01 |
| A16C G30A C45G | 0.03 |
| A16C G30C C45U C46A | 0.05 |
| A16C G33C C37G | 0.01 |
| A16C G33C C46A | 0.02 |
| A16C G33U U38C | 0.03 |
| A16C G35U A39G | 0.07 |
| A16C G36A G40U | 0.15 |

| Variant | self-cleavage |
| --- | --- |
| A16C U20A C23A C37A | 0.02 |
| A16C U20A G21A G33U U34G | 0.01 |
| A16C U20C A25C G36A C37G C45A | 0.01 |
| A16C U20C C37G | 0.03 |
| A16C U20C C42A | 0.06 |
| A16C U20C G35U | 0.03 |
| A16C U20G A41G | 0.05 |
| A16C U28A G36A | 0.02 |
| A16C U28G G33U C45U | 0 |
| A16C U28G G35U | 0.01 |
| A16C U34A A41U | 0 |
| A16C U34C A39U | 0.01 |
| A16C U34G A41C G44U | 0.01 |
| A16C U34G G35A C37U | 0 |
| A16C U38C C42A | 0.01 |
| A16G A24C G30A U32G A39U | 0.05 |
| A16G A24U A26U | 0.46 |
| A16G A25C A26G | 0.01 |
| A16G A25C G30A | 0.03 |
| A16G A25U C37A | 0.05 |
| A16G A26C C31A U32C G35A A39G C45A C46U | 0.01 |
| A16G A26G G36U | 0.08 |
| A16G A26U G30A | 0.4 |
| A16G A39G C45A C46G | 0.01 |

| Variant | self-cleavage |
| --- | --- |
| A16G A39U U43C | 0.04 |
| A16G C18A G19A G22A C45A | 0.05 |
| A16G C18A U34G G35C | 0.04 |
| A16G C18G A26U | 0.11 |
| A16G C18G G22C G27U | 0.35 |
| A16G C18G G27A C45U | 0.06 |
| A16G C18G G27U G40C | 0 |
| A16G C18G U38A | 0.02 |
| A16G C18U U28G G30U | 0.01 |
| A16G C18U U32A A41U C42A | 0.03 |
| A16G C23A G35C | 0.04 |
| A16G C23G C37U | 0.02 |
| A16G C23G U38G G40A C46A | 0 |
| A16G C23U A25U G36C C37A U43G | 0.03 |
| A16G C23U A26C C37A | 0.12 |
| A16G C31G U43A | 0.01 |
| A16G C31U G35A C37U G40C | 0 |
| A16G G17C A25G G27U | 0 |
| A16G G17C C37A | 0.02 |
| A16G G19A C31A G33U | 0.02 |
| A16G G19C U20A G44U | 0.01 |
| A16G G21U C45A | 0.05 |
| A16G G21U G30C | 0.7 |
| A16G G21U G30U | 0.35 |

| Variant | self-cleavage |
| --- | --- |
| A16G G22A C37G | 0.02 |
| A16G G22A C46U | 0.09 |
| A16G G22U A25C C37A | 0.11 |
| A16G G27U C37U A39C C46A | 0.01 |
| A16G G29C C46U | 0.62 |
| A16G G29C G40U A41U | 0.21 |
| A16G G29U G44C | 0.11 |
| A16G G30C U34C | 0.1 |
| A16G G33A C37A | 0.03 |
| A16G G33A G35C G44U | 0.03 |
| A16G G33A U34G | 0.01 |
| A16G G33U A39C | 0.01 |
| A16G G35C C45A C46A | 0.04 |
| A16G G35U A41U | 0.04 |
| A16G G36A C42A C46U | 0.24 |
| A16G U20A G27C C31G | 0.01 |
| A16G U20G C37G | 0.01 |
| A16G U20G G40C | 0.06 |
| A16G U32G G36C C42U | 0 |
| A16G U43C C46U | 0.01 |
| A16U A24C G27A A39G G40A | 0.1 |
| A16U A24U C31U C37U A39C | 0.06 |
| A16U A25C G30U C31A | 0.01 |
